# From the supplement of paper PMC11417369
# Some of the results follow.
# System: PF3D7_0420300 AP2 domain 1 (GST-tagged)
# Experiment: gcPBM binding intensity (ln(normalized median fluorescence intensity)); higher = stronger DNA binding
# Outline: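 After 1 h on an Agilent 4 × 180k array of primer-extended double-stranded 36-bp intergenic genomic probes and negative controls, bound GST-tagged P. falciparum DNA-binding domains were detected with Alexa488 anti-GST antibody and scanned at 488 nm. The domains had been expressed in E. coli, and binding took place in 1× PBS with 1% milk, 0.2 mg/ml BSA, 0.5% salmon testes DNA and 0.03% Triton X-100. Binding intensity is the highest Masliner-normalised natural-log median intensity across replicate spots of either probe orientation.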
row,Sequence,gcPBM binding intensity (ln)
1,CATATTTTTATGAGATGTACAATAAGAAATATGTAA [XGTACX_site2389],9.09
2,TATGTATTTATATTAACACACAAAAAAAAAAAAAAA [CACACA_site5070],9
3,ATATGGCTAAAAGTTGCACACACACTAATAAAAAAA [CACACA_site9082],9.76
4,ATTATTTTACTAAAAGATATTCCTTTTTTTTGTACT [CACACA_negctrl_site998],9.18
5,ATATGCCTAATAAAATGTACGTTTGTTTTATTTATT [XGTACX_site3833],9.5
6,ATATATATATTTTGGTAGCACCTCCTTTTTTTTTTT,9.55
7,TAAAAATTAATATAAACACACAAAAATTAATAAATA [CACACA_site381],9.56
8,TATAACAAGTTATAAAGTACAAATGTTGAATTTTAT [XGTACX_site4673],9.14
9,TCGGGAGGGGGGAAGCGTACATATATAAAATTATTA [XGTACX_site4683],10.2
10,TATAGATACAGATACACACACACACCGACATATATA [CACACA_site5832],10.2
11,GAATGTATATTCATGTATTTATTATTATTATTATTA [XGTACX_negctrl_site156],9.23
12,TTCTTCTGTTTTATTACACACCATTTTGTGGATACA [CACACA_site5181],9.61
13,TACCTAGGATTAAAGTGTCCACATAATTTAAATAAT [XGTACX_site6736],9.04
14,TATATAAATAGACACACACACATATAAATATAAATA [CACACA_site6503],10.1
15,TTTTTTATTATATAATTGTATATAAAATTATAATTT [GTGCAC_negctrl_site733],8.98
16,TAACTTGAATGGATATGTACATATATATATATATAT [XGTACX_site5990],9.16
17,ATTCATCTATTTTGTAGTACTAAATATATATCTACT [XGTACX_site8790],9.46
18,TAGATGTATGTACATACACACATATATAAATAAATA [CACACA_site1788],9.4
19,AATAAACATATATACACACACAAAAAAAAAAACATA [CACACA_site424],10.2
20,GGTAAGTACGACTTGACACACATACCCATATATATA [CACACA_site4837],9.42
21,ACAGTATCTGGTAGCTGTACGAGTCGTAGAGTGCAG [XGTACX_site2015],9.27
22,GCGAAATATTATTATAGTATACAAATACTTCTATGA [CACACA_negctrl_site197],9.01
23,GGTGTTAAAAAATACACACACAAAAAAAAAAAAAAA [CACACA_site138],9.15

row,Sequence,gcPBM binding intensity (ln)
1,TTTTTTTAATTTGGTTGTACTTAAAAAAAAAACAGA [XGTACX_site5788],8.78
2,TTCACAAAATATTATTGTACATTAAAATATTTATAT [XGTACX_site2535],8.94
3,TATAAAACGGATGAACAACAAATCATATGGCACAAA [TGCATGCA_negctrl_site608],9.79
4,TACATGATATATCACACACACATATAAATATATATA [CACACA_site2831],9.88
5,GAAAATTTCTTATTTTGTACACACAATAAATATTCA [XGTACX_site3267],9.29
6,GTTTTTTTATTTCATCGTACAAAAAAGAAGGCTTTA [XGTACX_site5291],8.89
7,TTATATATTTATTTATGTACATATTTTTTTATTATA [XGTACX_site6115],9.39
8,TAAATATGTATTCATACATGCACATATATATATATA [TGCATGCA_site584],9.19
9,TTTATACTTGTAAATGCACACATAAGATGCGACTAA [CACACA_site8662],9.18
10,ATATCCTTAAAAGATACACACATATGAATATTTTGT [CACACA_site3847],9.42
11,GTTTGTAAATATTTTACACACATATATATATATATA [CACACA_site1075],9.56
12,ATTATAGACACGCGCACACACAACAAAAAAAAAAAA [CACACA_site9180],9.81
13,TTGGGGTATCTTCCTATGCACACTTGTTATGTACTA [CACACA_site831],9.54
14,TTGCTCACAAGAAGCACACAAAAAAAGAAAAAAAAA [CACACA_site4047],9.13
15,ATACTTTTAAATTGATGTACTTTATTTATAAGGTGA [XGTACX_site6746],9.07
16,TTGATTACTAGAAATGCACACACTGATAAAATAAGG [CACACA_site4134],9.54
17,TTACAAATGTTTTACACACACATAATTGTATCAATT [CACACA_site6147],9.73
18,ACTACTCCATTAAGTAGTACACAAAAAAAAAAAATA [XGTACX_site7031],9.12
19,TAATAAAACATATATACACACATTATAAATACATAT [CACACA_site5014],9.86
20,TATAAATAAAAACACACACACATATATATATATATA [CACACA_site2319],9.75
21,CCATTTTAAATATGCACACAGATGCACTAACCCATT [CACACA_site1883],9.36
22,TAAAAAATAAAAAAAGCACACACATATATATATATA [CACACA_site8567],9.72
23,AAAATAAGAAATTGAAAAATTGAAAACAAAATTAAA [CACACA_negctrl_site1285],9.15

row,Sequence,gcPBM binding intensity (ln)
1,TATCCCTTAGAATACACACCCATATGAGCGTGAACT [CACACA_site2951],9.15
2,TCGTATATGGATTTTGCACACAATTATAATTTAAAT [CACACA_site868],9.49
3,TATATATTTTAAAATAGTACATATTATATAACCCAT [XGTACX_site2194],9.25
4,ATATATATATATATATGTACACATTAATGTTTTTTT [XGTACX_site167],9.41
5,ATTTTTTTTATGAGGTGTACTCATATAATAACTACA [XGTACX_site5074],9.11
6,TATTTTTTTTTTTAATGTACAAACAAATTATGTTGG [XGTACX_site2873],9.03
7,TTTTCTAAAGTAAGTTAAGATATGCAAAAAAAAGAA [GTGCAC_negctrl_site242],9.2
8,AATAAAAATTGGTAGGCACACATGGAACTATTAAAA [CACACA_site1257],9.64
9,TATAAAAGGTAAGAGTGTACAAGTAAAAAATTTTTA [XGTACX_site771],9.3
10,ATGAACTATATTAAATCACACATTATCATTTTATAT [CACACA_site4989],9.31
11,TATGTCAAATATATATGTACACAAATATACTATTAA [XGTACX_site2643],9.07
12,ATAAAATATATATTAGTGCACTAAAGGAAAAAAAAT,9.56
13,AATATATATATTAGAGTGCACATAATTATTTGCTAA,9.18
14,AAAAATTTCATATTCACACACAAAAAAAAAAAATAT [CACACA_site1592],9.75
15,TGATATATATATATATATATAACACACGCAAAAAAA [TGCATGCA_negctrl_site240],9.34
16,ATAATCACAAATAATTGTACATTTTGTTATATATAT [XGTACX_site7704],9.3
17,ATATGATATATATTCGGTACACATATATATAAAGAG [XGTACX_site430],9.43
18,TTTTTAATTTATTGTGTGCACACAACTATGAGTTTT,9.88
19,AAGTTTTCTTAAAATTGTACTTTTCAAAAATAATCT [XGTACX_site277],8.89
20,ATTTAAATAATATTCACACACAAAATTATATTTTAA [CACACA_site219],9.49
21,TTATTTTTTATTATGTGTACATAACATCGCGATACA [XGTACX_site4359],9.28
22,AAAACTTGTCAGAATGGACACACGAATTAAAGGCCT [CACACA_site1215],9.33
23,CAACATTCGTATATCACACATTTGCATGTTGTCAAT [CACACA_site4470],9.25

row,Sequence,gcPBM binding intensity (ln)
1,GATTTAGTTATTTAAACATGCAATTTATATAGAATT [TGCATGCA_site47],8.98
2,TATTTATACATACATACACACATATAGATTTATATT [CACACA_site7851],9.57
3,ATATGATCATACTGTGCATGTTAATGCAAATTTTAT [TGCATGCA_site984],9.27
4,TACATATATTATACATGTACACATTTATACATATCG [XGTACX_site2866],9.3
5,CGCACAGACGGACACACACACACATATATATATATA [CACACA_site5249],10.1
6,TTTTTTTTTATATAAAAAAAAATTTTTATTATTTTA [GTGCAC_negctrl_site347],8.72
7,TTCTCCTAATAGTTAGTGCACTACATAACTAAGAAA,8.82
8,ATAATTGTCCATTTTTTCTTTTTTTTTTTCTTTTTA [CACACA_negctrl_site928],9.58
9,AAAAAAAAAAAAAAAACACACATTTAGCAATCTACA [CACACA_site3706],9.32
10,ATTATTATATATGTATGTACTTATATAATATATATA [XGTACX_site5198],9.11
11,TATATATTGTTATATACACACATGTATTTAAAAAAT [CACACA_site5737],9.32
12,TCTGTTAAACAAAAAAGTACTAAAATAATGTAAAAT [XGTACX_site6826],9.41
13,TTAACAAAACATAAGGTGCTTAAAATTTTATATCAC [GTGCAC_site9839],9.21
14,TACCTATATAGACACACACACATATATTTATTTATA [CACACA_site6728],9.84
15,ATATGTACAAGTGTTTATGCTGAACGGAAATCCTGT [CACACA_negctrl_site1372],9.23
16,AAAAAAAAAAGAAACACACACATATATATATAGAAT [CACACA_site1777],10.1
17,CATACCTTTTAATGTACACACATTTCTTTTTTGTTA [CACACA_site892],9.73
18,AATATATATACTATAACACACATACACCCAAAAAAA [CACACA_site4453],9.79
19,TTATATGGATATACAGTGCATATATACATATAAGTG,9.15
20,TATATGTATTTGTATACACACAAATGTATATATTTA [CACACA_site1265],9.35
21,ATGTATTAAAATTTATGTACTTATATATAAATATAT [XGTACX_site1025],9.23
